{
  "source": "paper PMC12136788",
  "binders": {"B1": {"name": "chr7:80742902:80743013:-|3pUTR|ENSG00000075223|msi1_unk|total|mutant (ssRNA)", "RNA": "GGGAGUUCUACAGUCCGACGAUCUCAGAGUCACAGUUCCCUUUAUUUCACAUAAGCCCAAACUGACCGACAGUAACGGUGUUCCGUUUUAUACUAUAUUUGUGCUAUUUAAUUCUUUCUAUUUUCACAAUUAUUAAAUUGUGUCAACAGAGGAUUGAGCAUCA"}, "B2": {"name": "chr9:95099063:95099164:-|3pUTR|ENSG00000158169|unk|FALSE|unique (ssRNA)", "RNA": "GGGAGUUCUACAGUCCGACGAUCGAGCGCCCCUCCAACCAGGCUGUUAUUCCCCUGGACUCCGUGACAUCUGUGGAAUUUUUUAGCUCUUUAAAAUCUGUAAUUUGUUGUCUAUUUUUUCAUUCUAAAUAAAACUUCAGUUUGCAACAGAGGAUUGAGCAUCA"}, "B3": {"name": "chr11:112085977:112086295:-|three_prime_utr|ENSG00000150779|control|control|control (ssRNA)", "RNA": "GGGAGUUCUACAGUCCGACGAUCUCACCCCACUGCCUCACUGGAUUGUGAGGAUCAUAUGCGACAAUGUAUUUGAAAACGACUAGAACAUUAUCGGAGGAAGGUGGACUCUGAAGUAGUCGCUGUAGACUAUGGAUGUAGAACCAACAGAGGAUUGAGCAUCA"}, "B4": {"name": "chr12:109554177:109554278:-|3pUTR|ENSG00000139428|unk|FALSE|unique (ssRNA)", "RNA": "GGGAGUUCUACAGUCCGACGAUCUUGCUAUGUGCAGUGCCCUGAGCCAAGUGUUCCACAGACAUUAUCUCAUUUGAACCCCAUAGCAGCCCUGGAAGGAGGCAUUGGGUGGGGAACCAAGUUGUCCUGGGGAGUCAGUGCCAACAACAGAGGAUUGAGCAUCA"}, "B5": {"name": "chr15:89832191:89832292:-|3pUTR|ENSG00000157823|msi1|FALSE|unique (ssRNA)", "RNA": "GGGAGUUCUACAGUCCGACGAUCCUAGGUAGCUGGAACCACAGGCACGCAACCACCACUCCUGGCUAGUUUUAUUUUUUUAGUAGAAUAAGGUCUCACUAUGUUGCACAGGCUGGUCUCUAACUCCUUACCUCAAGCCAUCCUCAACAGAGGAUUGAGCAUCA"}, "B6": {"name": "chr10:80519475:80519574:+|3pUTR|ENSG00000108219|msi1_unk|FALSE|overlapping (ssRNA)", "RNA": "GGGAGUUCUACAGUCCGACGAUCAGUGUGGUGUAUACUGGUGGCUGUUGAUGAUGAUUUUUUUUUUUUUACACAAUUCUCUGUAGACUAGGAGAAGAAUGCUUGUGUUUUUCGGAAGUGUGAUGCUUCUCUUUGACUGCCAAACAACAGAGGAUUGAGCAUCA"}, "B7": {"name": "chr16:2708819:2708933:+|3pUTR|ENSG00000167977|unk|total|mutant (ssRNA)", "RNA": "GGGAGUUCUACAGUCCGACGAUCCUCUCUGGGGAGCUGCUGGCCGCUCCGCGUUGUUUGAUUUUUGACCUUGACACCGCCGACCGGCUUGUGGUUUUUUUAAUUUAAAGAUAUUAAGACUUAAUUCACUAAAAUUUAUUCUAACAACAGAGGAUUGAGCAUCA"}, "B8": {"name": "chr11:74254050:74254151:+|3pUTR|ENSG00000214517|unk|FALSE|unique (ssRNA)", "RNA": "GGGAGUUCUACAGUCCGACGAUCUUGGAAGACCCAGAGAGGCCAAGAUCCCAUCCUUAGCCAUAGCGAGCGGUGGUGGUGGAUAGCAUCACAAGAAACGAGCCUGAAAAUCAGGUCCAGCCGGUCCAAGCACAUGGCCUCCCACAACAGAGGAUUGAGCAUCA"}, "B9": {"name": "chr11:4681751:4682711:-|CDS|ENSG00000167332|control|control|control (ssRNA)", "RNA": "GGGAGUUCUACAGUCCGACGAUCUUAUCCACAUCCACCAUGCCUAAGAUCCUUGCCCUUUUCUGGUUUGAUUCCCGAGAGAUUAGCUUUGAGGCCUGUCUUACCCAGAUGUUCUUUAUUCAUGCCCUCUCAGCCAUUGAAUCCCAACAGAGGAUUGAGCAUCA"}, "B10": {"name": "chr14:75134619:75134720:-|3pUTR|ENSG00000170348|msi1|total|mutant (ssRNA)", "RNA": "GGGAGUUCUACAGUCCGACGAUCAACAAGUCAAUGAGGGACUUCUUUUUAAUUUGGCCGGAUUUUGACUGGUUUUGCAACAACCGGUCUAUUAUCCGAGUCACCUAUGACAAAAAACCGGGGUUACCCCGAUAAUGCCAAAGUCAACAGAGGAUUGAGCAUCA"}, "B11": {"name": "chr17:47844907:47847298:-|three_prime_utr|ENSG00000189120|control|control|control (ssRNA)", "RNA": "GGGAGUUCUACAGUCCGACGAUCAAGGUGCGUAUUUAUUCAGGGAGGAGGAAAAGUGGUGCAGGGACAGGGAGAUGGGGCGCUAGGGGUUCUUAGUCUCUGGGGCUACUAGGCAGGAUGAAUUUGACUGGGUCGGUAGGAGCUCAACAGAGGAUUGAGCAUCA"}, "B12": {"name": "chr1:235977234:235977335:-|3pUTR|ENSG00000116962|msi1|FALSE|unique (ssRNA)", "RNA": "GGGAGUUCUACAGUCCGACGAUCGUCUAAGACCCCCAUUAUAAUAUUCAUGCGCUGCUUUUUCAUCAAAACCUACCCUGUCCUAGAGAUCUAUGGGCAUUUGGUGGAUGAUAAUGAGCAGCCCCUCCCAGAUAGAAUGUCAAUCAACAGAGGAUUGAGCAUCA"}, "B13": {"name": "chr1:236581285:236581397:-|CDS|ENSG00000119285|unk|total|mutant (ssRNA)", "RNA": "GGGAGUUCUACAGUCCGACGAUCCAUCCCGAAGAUGUUUUUCAGUUAUUCAAGUUCUGUUCUGUUUUAUGGACCUAUGGUUCCCGCCUUUCAAAUCCACUAAACUGCAGUGUGAAAACAGUGCUGCAGACUCAAGCUCUUUAUCAACAGAGGAUUGAGCAUCA"}, "B14": {"name": "chr2:206311781:206311882:+|3pUTR|ENSG00000204186|unk|FALSE|unique (ssRNA)", "RNA": "GGGAGUUCUACAGUCCGACGAUCUAGUGUUUAGAGUCCUUUCAUUUUAAGAUUCAGAAACAGCCUUUGUCCAACAUUUUCUGUAGAAGAACUUCAUCUUAAUUUAUGUCACAAAAUAAUUUAGCACCGUAUAUAGAAUUUUGUCAACAGAGGAUUGAGCAUCA"}},
  "note": "This is one part of the list.",
  "data": [
    {"target": "T1, UNK ZnF1-6 (called full-length) (human, UniProt Q9C0B0 30-357)", "T1 sequence": "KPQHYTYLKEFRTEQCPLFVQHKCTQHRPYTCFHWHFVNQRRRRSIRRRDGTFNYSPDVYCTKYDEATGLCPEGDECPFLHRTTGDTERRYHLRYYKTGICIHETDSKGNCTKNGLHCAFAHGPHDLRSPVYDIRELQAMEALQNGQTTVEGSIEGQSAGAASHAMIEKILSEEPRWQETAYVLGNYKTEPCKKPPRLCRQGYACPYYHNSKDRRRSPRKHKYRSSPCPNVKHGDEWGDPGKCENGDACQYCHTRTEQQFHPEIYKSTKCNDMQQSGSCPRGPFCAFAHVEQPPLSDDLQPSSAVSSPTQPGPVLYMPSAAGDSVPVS", "assay": "nsRBNS (natural sequence RNA bind-n-seq); RBNS binding buffer (assumed for nsRBNS): 25 mM Tris pH 7.5, 150 mM KCl, 3 mM MgCl2, 0.01% Triton X-100, 500 ug/ml BSA, 20 U/ml SUPERase-In, 4 C; UNK is unkempt and MSI1 is Musashi-1; names of the RNAs are library labels; protein concentration not given here; high values mean tight binding", "units": {"binding signal": "enrichment R"}, "values": [
      {"binder": "B1", "binding signal": 1.71},
      {"binder": "B2", "binding signal": 2.25},
      {"binder": "B3", "binding signal": 0.779},
      {"binder": "B4", "binding signal": 0.911},
      {"binder": "B5", "binding signal": 3.98},
      {"binder": "B6", "binding signal": 0.661},
      {"binder": "B7", "binding signal": 2.05},
      {"binder": "B8", "binding signal": 0.682},
      {"binder": "B9", "binding signal": 0.548},
      {"binder": "B10", "binding signal": 0.275},
      {"binder": "B11", "binding signal": 1.32},
      {"binder": "B12", "binding signal": 3.15},
      {"binder": "B13", "binding signal": 0.314},
      {"binder": "B14", "binding signal": 11.6}
    ]}
  ]
}
